# From publication PMC12136788
# Numbering of substitutions follows the chain as printed. The list shows a part of the results.
# B1: chr9:125437660:125437767:-|3pUTR|ENSG00000119487|unk|total|mutant (ssRNA)
# RNA: GGGAGUUCUACAGUCCGACGAUCUGAUGUCCUUACUGUCCCCAGCCAGGGCCGGGGACCGGUGUUUCACUGAGGACCUGCAUCCGAAACAUUUUUUAAAUUGUUGUACAGGAAGAGAUGUGUCUAAAACAGCAUCUUAAAGCUCAACAGAGGAUUGAGCAUCA
# B2: chr1:109062750:109062855:-|3pUTR|ENSG00000197780|unk|FALSE|unique (ssRNA)
# RNA: GGGAGUUCUACAGUCCGACGAUCGCUUUCAGUAGCAGGAAUGGCAUUGUUUAAAAAGCUGAUGGCAGGGUAAGCAUUUGGGUUAGUGUUUUAUUAACAUAUUUGUAAGUACUUGUUCAUUGUGGAAAUGUGUCCUUGACUAAACAACAGAGGAUUGAGCAUCA
# B3: chr14:22906194:22906368:-|CDS|ENSG00000100461|control|control|control (ssRNA)
# RNA: GGGAGUUCUACAGUCCGACGAUCAGCCGAAGUCCAGGUCGGCAGUGUCGUCACCGUAGCCGUAGCUGGGAUCGUCGACAUGGUAGUGAGUCGCGAAGUCGGGACCAUCGUCGUGAGGAUCGUGUGCAUUACAGGAGUCCUCCACAACAGAGGAUUGAGCAUCA
# B4: chr9:69711526:69711627:-|3pUTR|ENSG00000188647|unk|total|mutant (ssRNA)
# RNA: GGGAGUUCUACAGUCCGACGAUCGAACUGCUGCCGUCUUCUGCAAUCAGUCUCUGUAUUGGUAUAUCCAGUACUAUCGGGUUCCGGUUCUUUUUAUUUUUCCUUAAAUCUUACUUGUUUCCCGCGUCUUAAGAGUGGUAAUGGCAACAGAGGAUUGAGCAUCA
# B5: chr2:73226876:73226918:+|3pUTR|ENSG00000135632|msi1_unk|FALSE|overlapping (ssRNA)
# RNA: GGGAGUUCUACAGUCCGACGAUCAUCUUUAGGGUCUCCACAGACUAACAUUGAAGUCUUCCAGAAACCUCGAGGAGCUGGGCUAGAUACUUCGAGAGUAGCCCUGUCUUGUCCCCUCCUACCCCCAGAUUAGCACCACCCCUCCAACAGAGGAUUGAGCAUCA
# B6: ENSG00000136451:be:win_1751|3pUTR|ENSG00000136451|bound_else_gene|NA|bound_elsewhere_windowed (ssRNA)
# RNA: GGGAGUUCUACAGUCCGACGAUCUCACUGGACCACUUUAGUUUAAUCAGAAAUUCCUUUUAGCUGACAACAUUGCUUAAACAGGAUAGUAGUUGGCAAGAUGAAAUGCCAGAAUUAAAACCAAUCAUAAGUAGAACCCACUUCCAACAGAGGAUUGAGCAUCA
# B7: chr1:211748167:211748268:-|3pUTR|ENSG00000123684|msi1|FALSE|unique (ssRNA)
# RNA: GGGAGUUCUACAGUCCGACGAUCGUACUGCAUCAGUGAGAUGAGUAGGGUUUUUGUUUGGGAUUGUAAGACUAUUAAGAUCCUAGUAAGUCAGUGGUAGUUUACUGUGAUGUGAGCAUUGUAGAUUCCCCCGUUGUCACUAAUCAACAGAGGAUUGAGCAUCA
# B8: chr1:214641902:214642005:+|CDS|ENSG00000117724|unk|FALSE|bound_elsewhere (ssRNA)
# RNA: GGGAGUUCUACAGUCCGACGAUCAGAAAUCAAUGUAAUUUUAAACCUCAGAUGGAUCUUGAAGUUAAAGAAAUUUCUCUAGAUAGUUAUAAUGCGCAGUUGGUGCAAUUAGAAGCUAUGCUAAGAAAUAAGGAAUUAAAACUUCAACAGAGGAUUGAGCAUCA
# B9: chr16:23068607:23068708:-|CDS|ENSG00000103404|msi1|FALSE|unique (ssRNA)
# RNA: GGGAGUUCUACAGUCCGACGAUCCCUGCCACAAGGAGCCCUUUCCCACCUGGGAAGAGCAGGACUUCAGACCACAGCUUGAGUAGAGAGGGCUCCAGACAAAGCUUGGGUUCUGACAGAGCCAGCGCCACCUCCACCUCCAAACAACAGAGGAUUGAGCAUCA
# B10: ENSG00000070961:be:win_3801|3pUTR|ENSG00000070961|bound_else_gene|NA|bound_elsewhere_windowed (ssRNA)
# RNA: GGGAGUUCUACAGUCCGACGAUCUUAUUUUUUUAAAAAAAAAAAAGCAAAGCUUUCUGCCAGACUGAGGGUGCUUUUUGGGGGGUGGGAGAAAUGAACUGACAGAUAAACAGUAACUCAGCGUAAGUGACCUGUGGAUCAUCACAACAGAGGAUUGAGCAUCA
# B11: chr16:23068607:23068708:-|CDS|ENSG00000103404|msi1|total|mutant (ssRNA)
# RNA: B9 RNA with U83C, A84C
# B12: chr7:77749912:77750028:+|CDS|ENSG00000187257|unk|total|mutant (ssRNA)
# RNA: GGGAGUUCUACAGUCCGACGAUCUGCAGCUUUCUACGUGAUGGGUAUUGUUCAUGGGGCAGCUACUUAUUUACCUGACUUUUCCGACUAUUUUUCAUUUAAUUUUCCCAAUUCACCAGUGAAAAUGGAGAUAUUGGGAAAGAACAACAGAGGAUUGAGCAUCA
# B13: chr11:118750849:118750950:-|3pUTR|ENSG00000110367|msi1|FALSE|unique (ssRNA)
# RNA: GGGAGUUCUACAGUCCGACGAUCAUUCUAGAAAGUACUUUGGCCUCGUGCUGUAGAGAGCAGAUUUCUAUGGUACCCUGUGUUAGUAAAGGGGCCCAGAAAUCUGGGAUGUACUGUUUGCUGCCACACUGUCUCAUCUAGUACCAACAGAGGAUUGAGCAUCA
# B14: chr14:74902662:74902763:+|3pUTR|ENSG00000119689|msi1|FALSE|unique (ssRNA)
# RNA: GGGAGUUCUACAGUCCGACGAUCCCCCUGGGGACCAUGUGAUUAAGUUCCUAUCUUUUGAAAGUUUGUUCUGCAGAGACUUCUAGGAGGAUGCUGUGCCUCCCAAGCUCAGAGCAGCCUCUGUCCUGGCUGUGCACAUUCUCCCAACAGAGGAUUGAGCAUCA
# B15: chr7:98206920:98207021:+|3pUTR|ENSG00000164715|unk|total|mutant (ssRNA)
# RNA: GGGAGUUCUACAGUCCGACGAUCGUUCUGCAUUAAGCCCCAGGUUCUCUUCUGGCUUUGAAAGGGCCCGAGUGCUCCCAGUGCCGCUUCGUCACAUCGUCACGAGCCCCUGUGGUCAUGGGCGACCUCACACCUCCCUCCCUGCAACAGAGGAUUGAGCAUCA
# B16: chr15:52547342:52547511:-|3pUTR|ENSG00000128989|msi1|total|mutant (ssRNA)
# RNA: GGGAGUUCUACAGUCCGACGAUCAACAUAUUUAAUAUUAUGCCCUUGGAUCUGUUACUGCAUCACCCGCACUUGUGAUGCAACCGAACACUUCGCCUGUACUGAAAGGGCCAAGAGUAAAUGCCUUGUUUUGUUUUUUUGUUUCAACAGAGGAUUGAGCAUCA
# B17: chr14:80199969:80200157:-|3pUTR|ENSG00000211448|msi1|total|mutant (ssRNA)
# RNA: GGGAGUUCUACAGUCCGACGAUCUUUAUGAUUUCUUGUGAUGUAUUCUUUUAUGAAAUUAACAAGAACUCAUUAUUUUGAGGCCGAGGAAAAUCAAUGCUUUAUCUGAUAUGCUGAGAAAUUAUCCGAUUGCCAAUACUCAUGCAACAGAGGAUUGAGCAUCA
# B18: chr7:111727939:111728040:-|3pUTR|ENSG00000128512|unk|FALSE|unique (ssRNA)
# RNA: GGGAGUUCUACAGUCCGACGAUCAAGUGGUAAAUAGUGAUAAAGACUCCUUUUGUACCUUUUUAUGUUCACUUUUUUUUAUAUAGUUUAAUCUUAAAACCAAUACGAUAUUGUCAAACGAUACAAUGUGUGACAAUGUUGUAUCAACAGAGGAUUGAGCAUCA
# B19: chr2:89268000:89268296:-|CDS|ENSG00000242076|control|control|control (ssRNA)
# RNA: GGGAGUUCUACAGUCCGACGAUCUCCCUGUCUGCAUCUGUAGGAGACAGAGUCACCAUCACUUGCCAGGCGAGUCAGGACAUUAGCAACUAUUUAAAUUGGUAUCAGCAGAAACCAGGGAAAGCCCCUAAGCUCCUGAUCUACCAACAGAGGAUUGAGCAUCA
# B20: chr10:58277235:58277315:+|CDS|ENSG00000122873|msi1_unk|FALSE|overlapping (ssRNA)
# RNA: GGGAGUUCUACAGUCCGACGAUCUAAAGAUCAUCGAAAUAAAGCUAUGAUAAACCUUCACAUCCAGAAAGACAACCCCAAGAUAGUACAUGCUUUUGACAUGGAGGAUUUGGGAGAUAAAGCUGUGUACUGCCGUUGUUGGAGCAACAGAGGAUUGAGCAUCA
# B21: chr8:37861146:37861251:-|3pUTR|ENSG00000156675|unk|FALSE|unique (ssRNA)
# RNA: GGGAGUUCUACAGUCCGACGAUCCUGUGCAGAGCAAGAAGAUGAUACUUAUUUUUGAAUUUGUAUUUUUAAAACUAGAUUUAUAGACUUUUUUUUUUUUUAACUAGGGCACUUGCUUCCUUCUUAGCUAAAAGCACCAGCUGACAACAGAGGAUUGAGCAUCA
# B22: chr1:180885099:180885158:+|3pUTR|ENSG00000143324|msi1_unk|FALSE|overlapping (ssRNA)
# RNA: GGGAGUUCUACAGUCCGACGAUCAGCUGAAGCUAUGCCUUAUUAUGCAUCCACAUGUAUGGUCCCUGUAGCGUGACCUUUACUAGCUCUGAAUCAGAAGACAGAGCUAUUUCAGAGGCUCUGUGUGCCCUCACUAGAUAGUUUCAACAGAGGAUUGAGCAUCA
# Target: MSI1 full-length (mouse, UniProt Q61474 1-362)
# Assay: nsRBNS (natural sequence RNA bind-n-seq); RBNS binding buffer (assumed for nsRBNS): 25 mM Tris pH 7.5, 150 mM KCl, 3 mM MgCl2, 0.01% Triton X-100, 500 ug/ml BSA, 20 U/ml SUPERase-In, 4 C; UNK is unkempt and MSI1 is Musashi-1; names of the RNAs are library labels; protein concentration not given here; high values mean tight binding
# Chain of UniProt Q61474 (Q61474 whole entry): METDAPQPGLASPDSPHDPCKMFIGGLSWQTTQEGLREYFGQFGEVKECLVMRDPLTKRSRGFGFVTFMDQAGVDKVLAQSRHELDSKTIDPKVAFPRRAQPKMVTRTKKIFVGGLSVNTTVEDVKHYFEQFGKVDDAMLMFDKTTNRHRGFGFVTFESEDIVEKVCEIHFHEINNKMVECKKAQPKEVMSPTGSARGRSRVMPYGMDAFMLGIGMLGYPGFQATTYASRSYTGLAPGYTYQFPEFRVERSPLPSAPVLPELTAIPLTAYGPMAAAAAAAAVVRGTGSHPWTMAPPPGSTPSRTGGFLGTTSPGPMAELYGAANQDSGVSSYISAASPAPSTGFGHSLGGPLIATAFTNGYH
row,Binder,binding signal [enrichment R]
1,B1,0.291
2,B2,0.742
3,B3,0.816
4,B4,0.401
5,B5,1.25
6,B6,6.85
7,B7,0.944
8,B8,0.847
9,B9,0.445
10,B10,0.497
11,B11,0.445
12,B12,0.345
13,B13,2.81
14,B14,0.338
15,B15,0.884
16,B16,0.464
17,B17,0.283
18,B18,37.8
19,B19,0.824
20,B20,0.395
21,B21,12.9
22,B22,5.41
